In all, about 81,000 sequences were measured (“one-hybrid fitness for binding parS DNA”: median about -0.17, highest 2% from about 0.51 on). The list shows a part of the results.
B1: Caulobacter ParB omega fusion; a variant is named by its letters at X, in order, B8GW30 (parent)
chain: MESVVVGEPGMSEGRRGLGRGLSALLGEVDAAPAQAPGEQLGGSREAPIEILQRNPDQPRRTFREEDLEDLSNSIREKGVLQPILVRPSPDTAGEYQIVAGERAWRAAQRAGLKTVPIMVRELDDLAVLEIGIIENVQRADLNVLEEALSYKVLMEKFERTQENIAQTIGKSXSHVANXMRLLXLPDEVQSYLVSGELTAXHARAIAAAADPVALAKQIIEGGLSVRETEALARKAPNLSAGKSKGGRPPRVKDTDTQALESDLSSVLGLDVSIDHRGSTGTLTITYATLEQLDDLCNRLTRGI

Variants of: B1
Test: one-hybrid fitness for binding parS DNA (scaled: cognate 1, non-cognate 0); higher = stronger binding
Details: with parS DNA site
How it was run: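 Values were rescaled so that cognate is 1 and non-cognate is 0. Each is a fitness, the log change in a variant's read ratio to wild type from Illumina reads of plasmids before and after selection, with three replicate libraries pooled and variants under 10 reads dropped. Selection of the Caulobacter ParB libraries, four specificity codons randomised, used E. coli USO with a HIS3 reporter, site 19 bp from the promoter, on M9-minus-histidine with 0.1 mM IPTG and 5 mM 3-AT for 48 hours at 37°C.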

| Variant | one-hybrid fitness for binding parS DNA |
| --- | --- |
| SRGI | ≤ 0.2 |
| PHKW | ≤ 0.2 |
| GVTM | ≤ 0.2 |
| DPRP | ≤ 0.2 |
| PHWS | ≤ 0.2 |
| NTER | ≤ 0.2 |
| GRDD | ≤ 0.2 |
| LKLG | ≤ 0.2 |
| KRYR | ≤ 0.2 |
| LHKG | ≤ 0.2 |
| KLGY | ≤ 0.2 |
| IEHR | ≤ 0.2 |
| KNAT | ≤ 0.2 |
| QTYC | ≤ 0.2 |
| SCCS | ≤ 0.2 |
| KYLW | ≤ 0.2 |
| LMNR | ≤ 0.2 |
| QHVV | ≤ 0.2 |
| VPGR | ≤ 0.2 |
| QVLE | ≤ 0.2 |
| NVAG | ≤ 0.2 |
| GDTF | ≤ 0.2 |
| PRHG | ≤ 0.2 |
| SRMV | ≤ 0.2 |

| Variant | one-hybrid fitness for binding parS DNA |
| --- | --- |
| HRPW | ≤ 0.2 |
| YTRH | ≤ 0.2 |
| QYKS | ≤ 0.2 |
| DCFS | ≤ 0.2 |
| LPDT | ≤ 0.2 |
| RATH | 0.255 |
| SLWC | ≤ 0.2 |
| RKNG | 0.907 |
| WTLR | ≤ 0.2 |
| RWGE | ≤ 0.2 |
| AYKG | ≤ 0.2 |
| RWPC | 0.337 |
| DVWY | ≤ 0.2 |
| DHAD | ≤ 0.2 |
| DKQS | ≤ 0.2 |
| DYIA | ≤ 0.2 |
| PAIT | ≤ 0.2 |
| CHFG | ≤ 0.2 |
| ISGR | ≤ 0.2 |
| KMSN | 0.216 |
| QPRG | ≤ 0.2 |
| VQGR | ≤ 0.2 |
| FGLS | ≤ 0.2 |
| HNMC | ≤ 0.2 |

| Variant | one-hybrid fitness for binding parS DNA |
| --- | --- |
| LTPY | ≤ 0.2 |
| RIPG | 0.703 |
| PNMA | ≤ 0.2 |
| AGSE | ≤ 0.2 |
| ALDR | ≤ 0.2 |
| KTRP | ≤ 0.2 |
| TVRF | ≤ 0.2 |
| NYST | ≤ 0.2 |
| LTKE | ≤ 0.2 |
| PHCW | ≤ 0.2 |
| QCPC | ≤ 0.2 |
| HREL | ≤ 0.2 |
| ISMG | ≤ 0.2 |
| DMRR | ≤ 0.2 |
| APWP | ≤ 0.2 |
| HFRF | ≤ 0.2 |
| SYER | ≤ 0.2 |
| LHTE | ≤ 0.2 |
| KMSS | ≤ 0.2 |
| FLHR | ≤ 0.2 |
| MLWF | 0.204 |
| VNHG | ≤ 0.2 |
| MGLP | ≤ 0.2 |
| QMTT | ≤ 0.2 |

| Variant | one-hybrid fitness for binding parS DNA |
| --- | --- |
| CNWG | ≤ 0.2 |
| GMMR | ≤ 0.2 |
| TLCE | ≤ 0.2 |
| SMSY | ≤ 0.2 |
| VPEK | ≤ 0.2 |
| ILSW | ≤ 0.2 |
| TLKW | ≤ 0.2 |
| MNDC | ≤ 0.2 |
| KNTL | ≤ 0.2 |
| QSSD | ≤ 0.2 |
| MSVT | ≤ 0.2 |
| LYPT | ≤ 0.2 |
| VMCG | ≤ 0.2 |
| NFMR | ≤ 0.2 |
| YEAF | ≤ 0.2 |
| RAAE | ≤ 0.2 |
| EVGC | ≤ 0.2 |
| PALD | ≤ 0.2 |
| GATV | ≤ 0.2 |
| QHIM | ≤ 0.2 |
| ITTI | ≤ 0.2 |
| YDYM | ≤ 0.2 |
| GISY | ≤ 0.2 |
| NWRG | ≤ 0.2 |

| Variant | one-hybrid fitness for binding parS DNA |
| --- | --- |
| QREA | ≤ 0.2 |
| DTWG | ≤ 0.2 |
| RLYL | ≤ 0.2 |
| EMAT | ≤ 0.2 |
| AKDK | ≤ 0.2 |
| RKNY | 0.358 |
| TGDF | ≤ 0.2 |
| SPIP | ≤ 0.2 |
| QFKC | ≤ 0.2 |
| DGIS | ≤ 0.2 |
| KRHY | ≤ 0.2 |
| EAER | ≤ 0.2 |
| SGLY | ≤ 0.2 |
| NQSS | ≤ 0.2 |
| HSVL | ≤ 0.2 |
| HRME | ≤ 0.2 |
| HGDR | ≤ 0.2 |
| SRTY | ≤ 0.2 |
| MSSH | ≤ 0.2 |
| KRMQ | ≤ 0.2 |
| CWKP | ≤ 0.2 |
| WGLT | ≤ 0.2 |
| RWPS | 0.444 |
| REMG | ≤ 0.2 |

| Variant | one-hybrid fitness for binding parS DNA |
| --- | --- |
| HAKP | ≤ 0.2 |
| EGTS | ≤ 0.2 |
| QLGM | ≤ 0.2 |
| PNLN | ≤ 0.2 |
| VSLD | ≤ 0.2 |
| NHDR | ≤ 0.2 |
| QKRR | ≤ 0.2 |
| LNQW | ≤ 0.2 |
| PFVA | ≤ 0.2 |
| LLWT | ≤ 0.2 |
| SHKG | ≤ 0.2 |
| HSRY | ≤ 0.2 |
| ESTI | ≤ 0.2 |
| FNMT | ≤ 0.2 |
| QTEG | ≤ 0.2 |
| TVSR | ≤ 0.2 |
| PHWA | ≤ 0.2 |
| IESM | ≤ 0.2 |
| QKDV | ≤ 0.2 |
| DPRK | ≤ 0.2 |
| CGFR | ≤ 0.2 |
| SHPK | ≤ 0.2 |
| YIIG | ≤ 0.2 |
| AYYA | ≤ 0.2 |

| Variant | one-hybrid fitness for binding parS DNA |
| --- | --- |
| ELMR | ≤ 0.2 |
| NTYW | ≤ 0.2 |
| AQDP | ≤ 0.2 |
| YTLL | ≤ 0.2 |
| TLFL | ≤ 0.2 |
| QATE | ≤ 0.2 |
| GRNE | ≤ 0.2 |
| DLQW | ≤ 0.2 |
| AYGS | ≤ 0.2 |
| NWFS | ≤ 0.2 |
| WSLA | ≤ 0.2 |
| CTPA | ≤ 0.2 |
| PCAH | ≤ 0.2 |
| SWYG | ≤ 0.2 |
| NCKH | ≤ 0.2 |
| GPNA | ≤ 0.2 |
| MCQG | ≤ 0.2 |
| PNVE | ≤ 0.2 |
| FFKR | ≤ 0.2 |
| KQYG | ≤ 0.2 |
| DVFC | ≤ 0.2 |
| PCTY | ≤ 0.2 |
| MRCE | ≤ 0.2 |
| LYRY | ≤ 0.2 |

| Variant | one-hybrid fitness for binding parS DNA |
| --- | --- |
| RKNT | 0.723 |
| SNYC | ≤ 0.2 |
| YQMA | ≤ 0.2 |
| PVSR | ≤ 0.2 |
| VHHC | ≤ 0.2 |
| ILYN | ≤ 0.2 |
| AMWR | ≤ 0.2 |
| NFPG | ≤ 0.2 |
| QCYG | ≤ 0.2 |
| PIAL | ≤ 0.2 |
| SFSS | ≤ 0.2 |
| SIAM | ≤ 0.2 |
| HYTR | ≤ 0.2 |
| QNQL | ≤ 0.2 |
| KARN | ≤ 0.2 |
| MTKQ | ≤ 0.2 |
| LIQC | ≤ 0.2 |
| FTKC | ≤ 0.2 |
| QWLL | ≤ 0.2 |
| RAEI | ≤ 0.2 |
| LWVG | ≤ 0.2 |
| PTSE | ≤ 0.2 |
| DQNF | ≤ 0.2 |
| HNTN | ≤ 0.2 |

| Variant | one-hybrid fitness for binding parS DNA |
| --- | --- |
| RVDP | ≤ 0.2 |
| ARMT | ≤ 0.2 |
| RNDD | ≤ 0.2 |
| TTWD | ≤ 0.2 |
| VEHY | ≤ 0.2 |
| VNKN | ≤ 0.2 |
| RQDD | ≤ 0.2 |
| ALMT | ≤ 0.2 |
| VLRD | ≤ 0.2 |
| AVVY | ≤ 0.2 |
| VYPC | ≤ 0.2 |
| MFLG | ≤ 0.2 |
| TAVS | ≤ 0.2 |
| MRNS | ≤ 0.2 |
| PLTK | ≤ 0.2 |
| TNPH | ≤ 0.2 |
| KLPC | ≤ 0.2 |
| ALKR | ≤ 0.2 |
| REMK | ≤ 0.2 |
| HASI | ≤ 0.2 |
| WSCR | ≤ 0.2 |
| YIRR | ≤ 0.2 |
| KASV | ≤ 0.2 |
| HSST | ≤ 0.2 |

| Variant | one-hybrid fitness for binding parS DNA |
| --- | --- |
| PFKE | ≤ 0.2 |
| RRRR | ≤ 0.2 |
| FHPS | ≤ 0.2 |
| AEEY | ≤ 0.2 |
| GGRR | ≤ 0.2 |
| HVSY | ≤ 0.2 |
| QHQV | ≤ 0.2 |
| PYDN | ≤ 0.2 |
| NDIV | ≤ 0.2 |
| RGMW | ≤ 0.2 |
| RFQH | ≤ 0.2 |
| VKIS | ≤ 0.2 |
| PHQL | ≤ 0.2 |
| HRRV | ≤ 0.2 |
| RALD | ≤ 0.2 |
| NPSH | ≤ 0.2 |
| QLVF | ≤ 0.2 |
| LPYN | ≤ 0.2 |
| ELRG | ≤ 0.2 |
| SPTL | ≤ 0.2 |
| QLRN | ≤ 0.2 |
| PTMQ | ≤ 0.2 |
| RGTA | 0.376 |
| MLAD | ≤ 0.2 |

| Variant | one-hybrid fitness for binding parS DNA |
| --- | --- |
| CYLC | ≤ 0.2 |
| NHTV | ≤ 0.2 |
| TSPF | ≤ 0.2 |
| LSYM | ≤ 0.2 |
| CASS | ≤ 0.2 |
| AFAG | ≤ 0.2 |
| PSGA | ≤ 0.2 |
| SHIP | ≤ 0.2 |
| HHLI | ≤ 0.2 |
| EAPW | ≤ 0.2 |
| RCPY | 0.276 |
| HAGF | ≤ 0.2 |
| ESLR | ≤ 0.2 |
| GAEP | ≤ 0.2 |
| ELPK | ≤ 0.2 |
| RLFM | 0.369 |
| CWIR | ≤ 0.2 |
| PGWR | ≤ 0.2 |
| HLDG | ≤ 0.2 |
| HSLW | ≤ 0.2 |
| FGAT | ≤ 0.2 |
| MFRK | ≤ 0.2 |
| AYQG | ≤ 0.2 |
| PAIM | ≤ 0.2 |

| Variant | one-hybrid fitness for binding parS DNA |
| --- | --- |
| AVYR | ≤ 0.2 |
| NKVR | ≤ 0.2 |
| RKEP | ≤ 0.2 |
| YSLR | ≤ 0.2 |
| SKIL | ≤ 0.2 |
| IPMD | ≤ 0.2 |
| TQKA | ≤ 0.2 |
| CSPP | ≤ 0.2 |
| FHKL | ≤ 0.2 |
| PNAN | ≤ 0.2 |
| DTPR | ≤ 0.2 |
| RKQR | ≤ 0.2 |
| ECKR | ≤ 0.2 |
| NWAR | ≤ 0.2 |
| WWCY | ≤ 0.2 |
| QHSH | ≤ 0.2 |
| DPLE | ≤ 0.2 |
| LTCC | ≤ 0.2 |
| EKCC | ≤ 0.2 |
| TRGE | ≤ 0.2 |
| TKAF | ≤ 0.2 |
| KHVM | ≤ 0.2 |
| LVVV | ≤ 0.2 |
| YTRS | ≤ 0.2 |

| Variant | one-hybrid fitness for binding parS DNA |
| --- | --- |
| SNVG | ≤ 0.2 |
| GGSP | ≤ 0.2 |
| HTKF | ≤ 0.2 |
| FPTT | ≤ 0.2 |
| CRHK | ≤ 0.2 |
| QPSE | ≤ 0.2 |
| MRNR | ≤ 0.2 |
| HIES | ≤ 0.2 |
| IDDR | ≤ 0.2 |
| QPAF | ≤ 0.2 |
| TSTH | ≤ 0.2 |
| MLRE | ≤ 0.2 |
| PCSK | ≤ 0.2 |
| YTTF | ≤ 0.2 |
| VQHI | ≤ 0.2 |
| DVDC | ≤ 0.2 |
| TFLK | ≤ 0.2 |
| RWAV | ≤ 0.2 |

Source: a collection of fitness landscapes (doi:10.1016/j.celrep.2020.107928)
